Measured values from publication PMC10761038.
These are yes or no findings as the source states them, for the method shown. For part of these data: Binding seen in cells or lysates may run through a third protein. Some entries that bind do so weakly or less than the wild type. For part of these data: Sequences can lack the tags named with a protein.

Chains of the proteins cited; added tags and fusions are not shown.
UniProt Q14160: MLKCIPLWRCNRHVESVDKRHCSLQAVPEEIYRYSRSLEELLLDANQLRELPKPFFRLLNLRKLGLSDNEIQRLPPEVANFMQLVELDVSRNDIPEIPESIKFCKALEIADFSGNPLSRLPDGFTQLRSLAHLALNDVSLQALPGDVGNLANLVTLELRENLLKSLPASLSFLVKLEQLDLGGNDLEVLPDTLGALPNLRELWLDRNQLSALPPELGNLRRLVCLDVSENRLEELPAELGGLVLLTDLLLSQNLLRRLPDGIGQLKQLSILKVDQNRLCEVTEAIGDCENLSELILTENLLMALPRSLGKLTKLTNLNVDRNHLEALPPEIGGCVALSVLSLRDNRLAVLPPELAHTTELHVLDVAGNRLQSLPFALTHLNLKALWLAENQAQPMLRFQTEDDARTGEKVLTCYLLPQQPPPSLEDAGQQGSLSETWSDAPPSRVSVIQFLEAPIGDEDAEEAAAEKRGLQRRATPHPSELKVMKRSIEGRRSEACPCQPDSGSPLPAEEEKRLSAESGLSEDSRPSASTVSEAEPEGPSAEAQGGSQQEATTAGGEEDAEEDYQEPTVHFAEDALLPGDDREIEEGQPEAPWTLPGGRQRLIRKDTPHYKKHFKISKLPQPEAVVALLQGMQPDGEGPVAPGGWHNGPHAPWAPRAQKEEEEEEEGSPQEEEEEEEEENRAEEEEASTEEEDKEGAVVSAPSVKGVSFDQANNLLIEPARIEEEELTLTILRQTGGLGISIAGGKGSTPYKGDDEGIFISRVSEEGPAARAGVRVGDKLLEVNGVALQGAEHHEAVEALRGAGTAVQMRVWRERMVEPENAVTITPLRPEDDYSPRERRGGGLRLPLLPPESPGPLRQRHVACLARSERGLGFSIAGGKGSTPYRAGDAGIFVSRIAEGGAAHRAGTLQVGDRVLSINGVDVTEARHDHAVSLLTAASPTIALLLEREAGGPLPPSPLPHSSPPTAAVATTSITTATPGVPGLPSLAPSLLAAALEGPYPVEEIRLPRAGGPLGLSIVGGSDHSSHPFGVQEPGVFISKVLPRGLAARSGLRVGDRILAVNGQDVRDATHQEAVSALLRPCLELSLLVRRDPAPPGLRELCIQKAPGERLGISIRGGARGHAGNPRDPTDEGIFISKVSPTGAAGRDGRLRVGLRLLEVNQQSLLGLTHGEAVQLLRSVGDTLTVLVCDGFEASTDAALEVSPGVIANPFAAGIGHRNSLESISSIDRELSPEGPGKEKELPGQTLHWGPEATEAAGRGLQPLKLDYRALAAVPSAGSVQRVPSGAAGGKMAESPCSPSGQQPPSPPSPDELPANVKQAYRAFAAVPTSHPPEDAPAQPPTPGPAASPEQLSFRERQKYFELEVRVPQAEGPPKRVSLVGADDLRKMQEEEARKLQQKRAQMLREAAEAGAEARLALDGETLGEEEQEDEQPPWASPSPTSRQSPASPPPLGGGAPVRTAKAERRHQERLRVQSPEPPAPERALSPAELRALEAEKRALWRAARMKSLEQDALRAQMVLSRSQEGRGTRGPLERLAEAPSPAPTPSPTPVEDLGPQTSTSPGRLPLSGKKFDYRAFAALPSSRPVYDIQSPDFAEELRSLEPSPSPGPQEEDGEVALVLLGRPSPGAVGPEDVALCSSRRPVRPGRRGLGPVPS
UniProt P35221: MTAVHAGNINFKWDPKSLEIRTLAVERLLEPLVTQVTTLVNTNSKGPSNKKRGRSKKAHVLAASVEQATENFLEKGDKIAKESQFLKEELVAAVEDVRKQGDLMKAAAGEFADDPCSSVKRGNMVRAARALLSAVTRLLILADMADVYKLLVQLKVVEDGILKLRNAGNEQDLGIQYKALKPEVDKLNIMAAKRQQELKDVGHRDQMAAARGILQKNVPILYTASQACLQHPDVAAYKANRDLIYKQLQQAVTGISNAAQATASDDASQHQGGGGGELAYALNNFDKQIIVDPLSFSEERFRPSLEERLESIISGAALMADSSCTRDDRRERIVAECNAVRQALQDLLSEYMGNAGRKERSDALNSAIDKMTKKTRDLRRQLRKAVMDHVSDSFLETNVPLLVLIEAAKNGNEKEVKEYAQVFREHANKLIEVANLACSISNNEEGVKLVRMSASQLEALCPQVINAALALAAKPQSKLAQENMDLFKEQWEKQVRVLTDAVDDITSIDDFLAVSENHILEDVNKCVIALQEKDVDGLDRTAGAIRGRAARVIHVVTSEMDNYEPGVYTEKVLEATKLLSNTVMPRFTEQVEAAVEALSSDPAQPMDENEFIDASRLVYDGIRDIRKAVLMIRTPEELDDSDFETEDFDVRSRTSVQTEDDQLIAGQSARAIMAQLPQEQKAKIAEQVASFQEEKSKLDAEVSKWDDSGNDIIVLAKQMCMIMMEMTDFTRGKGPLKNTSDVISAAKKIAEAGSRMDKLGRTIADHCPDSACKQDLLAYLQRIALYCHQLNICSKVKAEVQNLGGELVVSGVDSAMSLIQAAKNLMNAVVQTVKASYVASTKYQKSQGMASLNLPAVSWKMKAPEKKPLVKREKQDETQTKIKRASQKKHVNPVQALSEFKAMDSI
UniProt P35222: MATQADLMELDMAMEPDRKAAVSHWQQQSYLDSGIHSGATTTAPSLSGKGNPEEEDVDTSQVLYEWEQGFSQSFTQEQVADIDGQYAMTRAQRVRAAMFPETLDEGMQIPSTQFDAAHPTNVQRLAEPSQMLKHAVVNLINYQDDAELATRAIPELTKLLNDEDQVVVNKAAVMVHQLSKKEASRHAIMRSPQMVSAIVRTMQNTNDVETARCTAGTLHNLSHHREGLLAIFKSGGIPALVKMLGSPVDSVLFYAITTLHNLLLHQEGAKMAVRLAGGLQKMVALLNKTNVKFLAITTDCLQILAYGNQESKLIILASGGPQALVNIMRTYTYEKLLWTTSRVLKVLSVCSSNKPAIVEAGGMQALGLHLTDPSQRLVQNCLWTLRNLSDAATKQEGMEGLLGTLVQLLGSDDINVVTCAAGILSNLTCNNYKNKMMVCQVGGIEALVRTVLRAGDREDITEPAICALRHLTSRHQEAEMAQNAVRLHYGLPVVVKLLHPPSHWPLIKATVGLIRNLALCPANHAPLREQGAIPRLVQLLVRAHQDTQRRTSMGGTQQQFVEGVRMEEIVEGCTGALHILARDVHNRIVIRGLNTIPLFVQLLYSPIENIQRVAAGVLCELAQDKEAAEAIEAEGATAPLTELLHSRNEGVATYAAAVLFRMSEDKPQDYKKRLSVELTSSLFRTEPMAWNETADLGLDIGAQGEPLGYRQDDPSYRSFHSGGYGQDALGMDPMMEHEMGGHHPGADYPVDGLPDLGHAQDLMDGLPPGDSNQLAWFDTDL

Legend:
[1] = target: T1, Lgl1 (endogenous) (human (endogenous in A549)) (UniProt Q15334); assay: co-IP; A549 cell lysates (parental, stably expressing GFP-Scrib or Neon-Lgl1 forms, or tet-shLgl1 without Dox) in NP-40 buffer (20 mM Tris pH 8, 150-200 mM NaCl, 0.5 mM EDTA, 1% NP-40, 1 mM DTT, 5% glycerol); antibody 2 h at 4°C, protein A/G beads, three washes, Western blot; IgG as negative …
T1 sequence: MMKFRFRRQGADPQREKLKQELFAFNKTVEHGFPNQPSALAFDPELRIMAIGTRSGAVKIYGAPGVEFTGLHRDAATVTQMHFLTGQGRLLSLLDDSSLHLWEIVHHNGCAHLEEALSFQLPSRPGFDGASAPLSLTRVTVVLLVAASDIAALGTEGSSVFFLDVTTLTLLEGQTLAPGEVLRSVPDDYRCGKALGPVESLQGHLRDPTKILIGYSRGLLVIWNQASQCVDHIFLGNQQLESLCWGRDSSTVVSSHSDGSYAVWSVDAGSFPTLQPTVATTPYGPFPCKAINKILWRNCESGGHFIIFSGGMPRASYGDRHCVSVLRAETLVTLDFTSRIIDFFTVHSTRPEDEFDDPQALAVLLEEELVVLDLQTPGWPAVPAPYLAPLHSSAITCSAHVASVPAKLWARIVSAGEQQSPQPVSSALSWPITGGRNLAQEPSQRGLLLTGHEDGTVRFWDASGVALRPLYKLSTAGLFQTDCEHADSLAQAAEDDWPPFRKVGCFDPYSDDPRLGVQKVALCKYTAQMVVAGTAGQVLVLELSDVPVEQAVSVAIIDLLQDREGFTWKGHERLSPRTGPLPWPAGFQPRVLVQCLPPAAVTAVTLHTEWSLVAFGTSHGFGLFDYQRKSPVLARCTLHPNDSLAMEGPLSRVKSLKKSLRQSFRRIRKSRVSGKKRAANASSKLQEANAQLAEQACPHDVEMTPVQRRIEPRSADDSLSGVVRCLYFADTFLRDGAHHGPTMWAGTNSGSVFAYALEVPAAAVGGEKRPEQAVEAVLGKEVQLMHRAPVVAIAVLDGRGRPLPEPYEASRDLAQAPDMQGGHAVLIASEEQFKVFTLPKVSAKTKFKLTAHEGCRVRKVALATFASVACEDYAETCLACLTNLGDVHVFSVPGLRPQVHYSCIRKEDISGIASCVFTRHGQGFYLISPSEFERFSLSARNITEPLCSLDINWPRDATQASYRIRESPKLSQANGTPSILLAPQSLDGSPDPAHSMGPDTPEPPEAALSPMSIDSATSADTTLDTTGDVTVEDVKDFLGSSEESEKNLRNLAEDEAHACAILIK

[2] = target: Scribble (endogenous) (human (endogenous in A549)) (UniProt Q14160); assay: as above
[3] = target: α-catenin (endogenous) (human (endogenous in A549)) (UniProt P35221); assay: as above
[4] = target: GST-α-catenin (UniProt P35221); assay: pull-down; GST proteins immobilised on glutathione beads, incubated with 10 µg MBP-Lgl1 or His-Scrib-PDZ in 200 µl binding buffer (20 mM Tris pH 8, 200 mM NaCl, 10% glycerol, 1% TX-100, 1 mM DTT) for 1 hr at 4°C; three washes, glutathione elution, Western blot or Ponceau S; both purified
[5] = target: GST-β-catenin (UniProt P35222); assay: as above

Molecule: Scribble (endogenous) (from UniProt Q14160 1-1655)
- binding [1]: binds

Molecule: β-catenin (endogenous) (from UniProt P35222 1-781)
- binding [2]: binds

B1: Lgl1 (endogenous) (protein, UniProt Q15334 1-1064)
chain: T1 sequence
- binding [2]: binds
- binding [3]: binds

B2: MBP-Lgl1 (protein, UniProt Q80Y17 1-1036)
chain: MMKFRFRRQGADPQREKLKQELFAFHKTVEHGFPNQPSALAFDPELRIMAIGTRSGAVKIYGAPGVEFTGLHRDAATVTQMHFLPGQGRLLTLLDDSSLHLWEIIHHNGCAHLEEGLSFHPPSRPSFDNASFPASLTRVTVVLLVAGNTAALGTESGSIFFLDVATLALLEGQTLSPDVVLRSVPDDYRCGKALGPVESLQGHLQDPSKILIGYSRGLLVIWSQATQSVDNVFLGNQQLESLCWGRDGSSIISSHSDGSYAIWSTDTGSPPTLQPTVVTTPYGPFPCKAINKILWRSCESGDHFIIFSGGMPRASYGDRHCVSVLRAETLVTLDFTSRVIDFFTVHSTQPEDECDNPQALAVLLEEELVVLDLQTPGWPAVPAPYLAPLHSSAITCSAHVANVPSKLWARIVSAGEQQSPQPASSALSWPITGGRNLAQEPSQRGLLLTGHEDGTVRFWDASGVALRPLYKLSTAGLFQTDCEHADSLAQAVEDDWPPFRKVGCFDPYSDDPRLGIQKVALCKYTAQMVVAGTAGQVLVLELSEVPAEHAVSVANVDLLQDREGFTWKGHERLNPHTGLLPWPAGFQPRMLIQCLPPAAVTAVTLHAEWSLVAFGTSHGFGLFDYQRKSPVLARCTLHPNDSLAMEGPLSRVKSLKKSLRQSFRRIRKSRVSGKKRTPAASSKLQEANAQLAEQTCPHDLEMTPVQRRIEPRSADDSLSGVVRCLYFADTFLRDATHHGPTMWAGTNSGSVFAYALEVPAATAGGEKRPEQAVEAVLGKEVQLMHRAPVVAIAVLDGRGRPLPEPYEASRDLAQAPDMQGGHAVLIASEEQFKVFTLPKVSAKTKFKLTAHEGCRVRKVALATFASVMSEDYAETCLACLTNLGDVHVFSVPGLRPQVHYSCIRKEDISGIASCVFTRHGQGFYLISPSEFERFSLSARNITEPLCSLDISWPQNATQPRLQESPKLSQANGTRDIILAPESCEGSPSSAHSKRADTMEPPEAALSPVSIDSAASGDTMLDTTGDVTVEYVKDFLG
- binding [4]: binds
- binding [5]: no binding (tested: 10 µg MBP-Lgl1 in 200 µl)
